Hit rate of the full screen: of about 94,000 compounds, about 6,200 (6.6%) were called active. Inconclusive means that the source gave no clear call. Such entries were picked first, then a sample of the others. Calls follow the shape of the dose curve; as a rule, active = well fitted inhibition curve with a large enough effect; inconclusive = small, poorly fitted or top-dose-only effect; inactive = flat fitted curve, though single readings scatter. Potencies beside an inconclusive call are fits to weak or partial responses and may not hold up.
Assay: Cytotoxic Profiling in HEK 293 Cell Line of Diverse Libraries Using Quantitative High-Throughput Screening; also: nearly all actives have a fitted effect of over 60% in size
Conditions: HEK 293 viability, ATP luminescence (CellTiter-Glo), 48-72 h; series mostly up to 115 µM
Method in brief: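 250 HEK 293 cells/well; compound by pintool; incubated 48 or 72 hr at 37 degree Celsius; CellTiter-Glo added, 10 min RT, luminescence imaged.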
Potency is read from the fitted curve at half-maximal effect; tags tell the direction and shape of the fitted curve.

| Compound | Potency |
| --- | --- |
| COc1cc(-c2[nH]ncc2CN2CCCCC2c2nccs2)cc(OC)c1OC (stereo not given) | inconclusive: 50.1 µM [inhibitor, partial curve, poor fit] |
| CCc1nc(NC(=O)C2c3ccccc3C(=O)N(CCOC)C23CCCC3)sc1C (stereo not given) | inactive |
| Cc1cn2nc(C(=O)Nc3ccc(F)cc3C)cc2c(N2CCSCC2)n1 | inconclusive: 50.1 µM [inhibitor, partial curve, poor fit] |
| COc1cccc(C(=O)NC2CCN(Cc3cccc(-c4cccc(C)c4)c3)CC2)c1 | inconclusive: 2.82 µM [inhibitor, full curve, poor fit] |
| c1ccc(CN2CCNc3cc(-c4ccoc4)ncc3C2)cc1 | inconclusive: 89.1 µM [inhibitor, partial curve, poor fit] |
| COC(=O)C1=C(C)N(Cc2cccc([N+](=O)[O-])c2)C(=O)CC1c1ccccc1Cl (stereo not given) | inconclusive: 28.2 µM [inhibitor, partial curve, poor fit] |
| Cc1ccc(-c2cccc(CN3CCCC(NC(=O)c4ccccc4)C3)c2)cc1Cl (stereo not given) | inactive |
| COc1ccc2[nH]c3c(c2c1)CCNC31CCN(C(=O)c2sccc2C)CC1 | inconclusive: 10 µM [inhibitor, full curve, poor fit] |
| CN1C[C@H](C(=O)NCc2ccccc2)C[C@H]1c1cccc(C(F)(F)F)c1 | inconclusive: 100 µM [inhibitor, partial curve] |
| N#Cc1cccc(C(=O)N2CCC(N3C[C@H](Oc4ccccc4)[C@@H]3c3ccncc3)CC2)c1 | inconclusive: 89.1 µM [inhibitor, single point] |
| COc1ccc2c(c1)CN(Cc1ccc(C(F)(F)F)cc1)CC[C@H]1COC(=O)N21 | inconclusive: 100 µM [inhibitor, partial curve, poor fit] |
| COCc1cc(CNc2nccc(-c3ccccn3)n2)[nH]n1 | inactive |
| COc1ccccc1-c1ccc2ncc(Nc3ccccc3F)n2n1 | inconclusive: 89.1 µM [inhibitor, partial curve] |
| O=C(Cn1ccn2nc3c(c2c1=O)CCCC3)Nc1ccc2c(c1)OCCO2 | inconclusive: 56.2 µM [inhibitor, partial curve, poor fit] |
| O=C(N1CCCC(Nc2ccc(F)cc2)C1)C12CC3CC(CC(C3)C1)C2 (stereo not given) | inconclusive: 25.1 µM [inhibitor, full curve, poor fit] |
| O=C(c1cc2cn(C3CC3)cc2s1)N1CCN(c2ccccn2)CC1 | inconclusive: 89.1 µM [inhibitor, single point] |
| CCOc1ccccc1CN1CCC2(CCN(C(=O)c3cccc(Cl)c3)CC2)Oc2ccccc21 | inactive |
| CN1CC2(CCOC2)N(C2CCN(C(=O)C3CCCC3)CC2)C1=O (stereo not given) | inactive |
| CCOCCCNC(=O)N1CCC(c2noc(-c3ccncc3)n2)C1 (stereo not given) | inactive |
| COCCNc1ncccc1-c1cc(-c2ccccc2)nc2c(C)noc12 | inconclusive: 89.1 µM [inhibitor, partial curve, poor fit] |
| C#CCNC(=O)c1ccc2nnc(-c3cccc(OC(F)(F)F)c3)n2c1 | inconclusive: 79.4 µM [inhibitor, partial curve, poor fit] |
| CCc1cc(=O)n(CC(=O)Nc2ccc(OC)cc2)c(-c2ccccc2)n1 | inconclusive: 39.8 µM [inhibitor, full curve, poor fit] |

| Compound | Potency |
| --- | --- |
| Cc1ccc(C2NC(=O)N(CC(=O)Nc3cc(F)cc(F)c3)C3=C2C(=O)OC3)cc1 (stereo not given) | inconclusive: 22.4 µM [inhibitor, full curve] |
| O=C(CCc1ccccc1)N1CCC(Cc2nc(-c3ccc(F)cc3)no2)CC1 | active: 44.7 µM |
| CNc1nccc(N2CCC(CC(=O)NCCCN3CCc4ccccc4C3)CC2)n1 | inconclusive: 50.1 µM [inhibitor, partial curve, poor fit] |
| COc1cccc(-c2noc(CC3CCN(C(=O)c4cc(Cl)ccc4F)CC3)n2)c1 | inconclusive: 7.94 µM [inhibitor, full curve, poor fit] |
| CCN(CC)Cc1nc(C2(O)CCN(C3CCCC3)CC2)cs1 | inconclusive: 100 µM [inhibitor, partial curve] |
| COc1cccc(-c2ccccc2NC(=O)C2CCN(c3nccnc3C)CC2)c1 | inconclusive: 35.5 µM [inhibitor, full curve, poor fit] |
| Fc1ccc(-c2cnc([C@@H]3COCCN3CC3CC3)[nH]2)cc1 | inconclusive: 126 µM [inhibitor, single point] |
| O=C1NC(=NC2CCCC2)C2(CCN(CC3CCCCC3)CC2)N1c1cc(F)cc(F)c1 | inactive |
| COc1cccc(Nc2ccc3c(n2)C(C)(C(=O)NCCc2ccccn2)CN(C)C3)c1 (stereo not given) | inconclusive: 112 µM [inhibitor, partial curve, poor fit] |
| Cc1cc(C)cc(-c2ccc(CN3CC4CCC(C3)N4c3ccc(C(F)(F)F)cc3)cc2)c1 | inactive |
| O=C1NCCCCCN(C(=O)NC2CCCCC2)[C@@H]2C[C@@H](C(=O)N3CCc4ccccc4C3)C[C@H]12 | inconclusive: 28.2 µM [inhibitor, single point] |
| O=C(CN1C(=O)NC2(CCCCC2)C1=O)Nc1ccc(F)c(F)c1 | inconclusive: 89.1 µM [inhibitor, single point] |
| COc1cc(CNC(=O)CCC2CCN(S(=O)(=O)c3ccccc3)CC2)cc(OC)c1 | inconclusive: 31.6 µM [inhibitor, partial curve, poor fit] |
| O=C(NC1CCN(c2cc(-c3ccc(F)cc3)[nH]n2)CC1)c1ccccc1Cl | inconclusive: 50.1 µM [inhibitor, partial curve, poor fit] |
| Cc1noc(-c2ccc(OC(F)(F)F)cc2)c1C(=O)NCc1cccc(Cl)c1 | inconclusive: 39.8 µM [inhibitor, full curve, poor fit] |
| O=C(Cc1cccs1)NC1CCCc2c1[nH]c1c(Cl)cccc21 (stereo not given) | inconclusive: 50.1 µM [inhibitor, partial curve, poor fit] |
| CCN(CCOc1ccc(C)cc1)C(=O)c1c(O)cccc1O | inconclusive: 50.1 µM [inhibitor, partial curve, poor fit] |
| CC[C@H]1CN(S(=O)(=O)c2ccc(OC)cc2)CC[C@H]1CC(=O)N(C)CC#N | inactive |
| COc1ccc(CN2C(=O)[C@H](OC)[C@@H]2C2=CCN(C(=O)c3ccco3)CC2)cc1 | inconclusive: 89.1 µM [inhibitor, single point] |
| COCCOC1CCN(C(C(=O)O)c2ccc(OC)c(F)c2)CC1 (stereo not given) | inactive |
| CO[C@H]1C(=O)N(C(C)C)[C@H]1C1CCN(Cc2cccc(C#N)c2)CC1 | inactive |
| CCOc1nccn2c(-c3ccc(CN4CCN(C(C)=O)CC4)cc3)cnc12 | inactive |

| Compound | Potency |
| --- | --- |
| O=C(Cc1cccc(F)c1)N1CCN(c2cc(C(F)(F)F)ncn2)CC1 | inconclusive: 79.4 µM [inhibitor, single point] |
| Cc1ccc(-c2cnc([C@@H]3COCCN3Cc3cn(C)c4ccccc34)[nH]2)cc1 | active: 56.2 µM |
| COc1ccc(C(=O)N2CCC3(CC2)CC(=O)N(c2ccccc2)c2ccccc2O3)cc1 | inconclusive: 89.1 µM [inhibitor, single point] |
| CC1=C[C@@H](CNS(=O)(=O)c2ccc(C)cc2)[C@H](C(C)C)C[C@H]1CC(=O)N(C)Cc1cccnc1 | active: 44.7 µM |
| COc1ccccc1-c1ccnc(N[C@H]2CO[C@H]3[C@@H]2OC[C@@H]3NS(=O)(=O)c2ccc3ccccc3c2)n1 | active: 31.6 µM |
| CN(C)CCNC(=O)C1(C)CN(Cc2ccccc2)Cc2ccc(N3CCOCC3)nc21 (stereo not given) | inconclusive: 112 µM [inhibitor, single point] |
| O=C(Nc1ccc([C@@H](O)[C@H]2COCC(=O)N2Cc2ccc(F)cc2)cc1)c1ccnc(Cl)c1 | inconclusive: 50.1 µM [inhibitor, partial curve, poor fit] |
| O=c1c2nc(-c3ccccc3C(F)(F)F)ccc2ncn1C1CC1 | inactive |
| O=C(NCCNC(=O)c1ccc(-c2cncnc2)cc1)NC1CCCC1 | inactive |
| CCCOc1cc(C)c2c(c1C)C[C@H]([C@H](C)C(=O)NCCOC)CC2 | inactive |
| COCC(=O)N1CC[C@@H](CC(=O)O)[C@@H](CCN2CCN(c3ccc(F)cc3)CC2)C1 | inactive |
| O=C(NCC1CC1)c1nc2c(o1)CCN(Cc1ccc3[nH]ccc3c1)CC2 | inconclusive: 100 µM [inhibitor, partial curve, poor fit] |
| Cc1ccc(C)c(NC(=O)c2cc3c(N4CCSCC4)nc(C)cn3n2)c1 | inconclusive: 17.8 µM [inhibitor, full curve] |
| COc1ccc(C2(C(=O)N3CCCN(S(=O)(=O)c4ccccc4)CCC(=O)NCC3)CC2)cc1 | inactive |
| COc1ccc(-c2cc(C(=O)NCC(F)(F)F)c3c(C4CCCN4)nn(C)c3n2)cc1 (stereo not given) | inconclusive: 79.4 µM [inhibitor, partial curve, poor fit] |
| O=C(c1ccc2nnc(C3CCCC3)n2c1)N1CCOCC1 | inactive |
| COc1ccc(-c2nc(C)nc3c2CN(C(=O)C2CC2)CC3)cc1 | inactive |
| O=C(O)CCc1ccnc(N2CCCC2)c1 | inactive |
| C#CCNC(=O)[C@H]1C[C@@H](O)[C@H](O)[C@@H]2N=C(Nc3cccc(C(F)(F)F)c3)S[C@@H]21 | inconclusive: 100 µM [inhibitor, partial curve, poor fit] |
| O=C(NCCCn1cccn1)C1CN(S(=O)(=O)c2cccs2)CC12CCCCC2 (stereo not given) | inactive |
| O=C(CCC[C@@H]1[C@H]2CCCN3CCC[C@@H](CN1C(=O)c1ccsc1)[C@@H]23)NCC1CC1 | inactive |

— PubChem BioAssay AID1345083 (National Center for Advancing Translational Sciences (NCATS), 2018)
